The text below walks through data of PubChem BioAssay AID463173 (ICCB-Longwood Screening Facility, Harvard Medical School, 2010).

Out of some 52,000 compounds screened, about 4,300 (8.3%) were called active. Cut-off read from the data, not from the text of the source: active = survival mostly below about 52% (no sharp cut-off); inactive = mostly above about 56%. This is one part of the list.

This assay relates to DeltatarO mutant. As to the kind of experiment: S. aureus survival, RN4220 and DeltatarO strains – OD600, teichoic acid synthesis inhibitors, primary screen (AID 463173). The settings on record: S. aureus RN4220 wild type/DeltatarO growth, OD600, 18 h, hits give low values, screened at 18.75 µg/mL (by protocol).
With `CC1=C(C(=O)Nc2ccccc2)C(c2ccc(F)cc2)n2nc(SCc3cc(C)ccc3C)nc2N1` (centres undefined), the survival was inactive: 97%.
With `NC(=O)C1CCN(C(c2ccccc2)c2nnnn2Cc2ccccc2)CC1` (centres undefined) the figure was inactive: 95%.
With `CCN(CC)S(=O)(=O)c1ccc2c(c1)N(CC(=O)Nc1cccc(C)c1C)C(=O)C1CCCN21` (centres undefined) the figure was active: -2%; with `O=C1C2C3C=CC(C3)C2C(=O)N1CCN1CCN(S(=O)(=O)c2ccc(Br)cc2)CC1` (centres undefined), inactive: 60%.
As for `CCOC(=O)N1CCN(Cc2nc3cc(NC(=O)CC(C)C)ccc3n2C(C)C)CC1`, the figure is inactive: 71%; as for `O=C(NCc1ccc2c(c1)CCN2C(=O)c1ccc(F)cc1)c1c(F)cccc1F`, inactive: 85%.
With `COc1cccc(-c2noc(-c3cc4ccccc4oc3=O)n2)c1OC`, the survival was inactive: 102%.
With `Cc1ccc(NC(=O)C2CCN(C(=O)c3sc4nc[nH]c(=O)c4c3C)CC2)cc1F` the figure was inactive: 89%; with `Cc1ccc(-c2nn(CCC(=O)Nc3ccc(OC(F)(F)F)cc3)c(=O)c3ccccc23)cc1`, inactive: 82%.
As for `CCOc1cccc(C(=O)N(Cc2ccc(C(C)C)cc2)C2CCS(=O)(=O)C2)c1` (centres undefined), the figure is active: 40%; as for `COc1ccccc1C(=O)Nc1ccccc1OCc1cc(=O)n2cc(C)sc2n1`, inactive: 85%.
With `Cc1ccc(/C=C(\C#N)C(=O)NC2CCCCCC2)o1`, the survival was inactive: 92%.
As for `CCCSc1nnc(NC(=O)c2cc(=O)c3ccccc3o2)s1`, the figure is active: 38%; as for `COCCNC(=O)Cn1cc(/C=C2\C(=O)NC(=O)N(C3CCCCC3)C2=O)c2ccccc21`, inactive: 88%; as for `CCOC(=O)N1CCc2c(sc3c2c(=O)n(CCc2ccccc2)c(=O)n3CC(=O)Nc2ccccc2C)C1`, inactive: 88%.
As for `O=C(c1cccc(Cl)c1)N(Cc1cccc(F)c1)C1CCS(=O)(=O)C1` (centres undefined), the figure is inactive: 88%; as for `NC(=O)c1c(NC(=O)CS(=O)(=O)c2ccc(Cl)cc2)sc2c1CCCC2`, inactive: 118%.
With `CCCN1CCN(CCCNC(=O)c2cc3c(s2)-c2c(C)cccc2OC3)CC1` the figure was inactive: 127%.
In the case of `COC(=O)c1cc2sccc2n1Cc1c(C)cc(C)cc1C`, the survival is inactive: 66%.
As for `Cc1nn(C)c2c1c(C(F)(F)F)cc(=O)n2CC(=O)Nc1ccc(F)cc1F`, the figure is inactive: 104%; as for `Cc1nnc(N2CCC(C(=O)NC3CCC(C)CC3)CC2)c2nn(-c3ccc(Cl)cc3)c(C)c12` (centres undefined), inactive: 78%; as for `Cc1ccccc1NC(=O)CSc1nccn1C`, inactive: 73%.
With `CCC(Sc1nc2ccccc2s1)C(=O)Nc1cc(C)on1` (centres undefined) the figure was inactive: 90%; with `Cc1cccc(N(C)C(=O)Cn2cnc3nc4c(cc3c2=O)CCCC4)c1`, active: 17%; with `Cc1cc(NCCN(C)C)c2ccccc2n1`, inactive: 89%.
With `CCN1C(=O)C(Cc2nc3ccccc3c(=O)n2-c2cccc(C)c2)c2ccccc21` (centres undefined) the figure was inactive: 50%; with `Cc1ccc(-c2noc(-c3ccccc3OCC(=O)Nc3ccccc3[N+](=O)[O-])n2)cc1`, inactive: 60%; with `CC(C)Oc1ccc(C(=O)NCCc2csc(-c3cccc(F)c3)n2)cc1`, inactive: 90%.
Regarding `O=C(Nc1ncc(Cc2ccc(F)cc2)s1)c1ccc2c(c1)CC(c1ccccc1)OC2=O` (centres undefined), the survival is inactive: 70%.
As for `CCCCCn1c(CCCNC(=O)c2ccccc2)nc2ccccc21`, the figure is inactive: 59%.
As for `COc1cccc(NC(=O)Cn2c(=O)n(-c3ccc(C)cc3)c(=O)c3ccccc32)c1`, the figure is inactive: 75%.
As for `CCCC(=O)N1c2nc(-c3ccco3)nn2C2(CCCCC2)[C@@H]2CCCC[C@@H]21`, the figure is inactive: 53%; as for `Cc1nc2ccccc2n1CCc1nc2c3ccccc3nc(SCc3ccccc3F)n2n1`, inactive: 95%.
On to `CCc1ccc(CNC(=O)c2ccc(Cn3c(=O)c4cccn4c4cccnc43)cc2)cc1`, for which the survival was inactive: 67%.
With `CCCc1nnc(NC(=O)CSc2nnc3c4ccccc4n(CC)c3n2)s1` the figure was inactive: 69%; with `COc1cccc(N2CC(NC(=O)c3cccs3)CC2=O)c1` (centres undefined), inactive: 74%.
With `COc1cccc(CNC(=O)CCc2c(C)nn(-c3ccc(N4CCCC4)nn3)c2C)c1` the figure was inactive: 88%.
For `Cc1cc(Cl)ccc1NC(=O)C1CCCN(c2nnc(C)c3c(C)n(-c4ccccc4)nc23)C1` (centres undefined), the survival is inactive: 75%.
As for `CC(C)c1ncc(C(O)c2cccc3ccccc23)n1C` (centres undefined), the figure is active: 56%.
As for `CC(CCc1ccccc1)NC(=O)CSc1n[nH]c(-c2ccccc2Cl)n1` (centres undefined), the figure is inactive: 54%.
With `Cc1cc(F)ccc1NC(=O)C1CCCN(C(=O)c2cnn(-c3ccccc3)c2-n2cccc2)C1` (centres undefined) the figure was inactive: 63%; with `COc1ccc(OC(=O)c2cn(-c3cccc(OC)c3)c(=O)c3ccccc23)cc1`, inactive: 80%; with `O=S(=O)(NCC(c1ccco1)S(=O)(=O)c1cccs1)c1ccccc1` (centres undefined), inactive: 101%.
Turning to `Cc1ccc(OC(C)C(=O)N2CCN(CCc3ccccn3)CC2)cc1C` (centres undefined), the survival is inactive: 66%.
With `CCCCc1nc(Cl)c(C#N)c2c1COC(C)(C)C2` the figure was inactive: 98%; with `COc1ccc(-c2oc3ncn4nc(COc5ccc(Cl)cc5)nc4c3c2-c2ccc(OC)cc2)cc1`, inactive: 87%.
With `CCc1nnc2c(Nc3cc(OC)c(Cl)cc3OC)nc3ccccc3n12` the figure was inactive: 86%; with `O=C(Nc1ccc2oc(-c3cccc4c(Br)cccc34)nc2c1)c1cccc(Cl)c1`, inactive: 119%; with `CCc1cccc(C)c1NC(=O)c1cc(CN2CCCC2)on1`, inactive: 87%.
With `CC(C)NC(=O)C1CCCN(S(=O)(=O)c2ccc3c(ccn3C)c2)C1` (centres undefined) the figure was inactive: 75%; with `Cc1ccc(OCCCC(=O)Nc2sc3c(c2C(N)=O)CCC(C)C3)cc1` (centres undefined), inactive: 159%.
As to `COc1ccc(N(CC(=O)N2CCN(c3cccc(Cl)c3)CC2)S(=O)(=O)c2c(C)noc2C)cc1`, the survival was inactive: 77%.
With `CC(NC(=O)CN1C2CCC1CC(=O)NC2)c1ccccc1` (centres undefined) the figure was inactive: 111%; with `CCOCCCNC(=O)CN1C(=O)CCn2nc(-c3cccn3C)cc21`, inactive: 80%; with `COc1cc2[nH]c(=O)n(CCCC(=O)N(C)Cc3ccccc3)c(=O)c2cc1OC`, inactive: 88%.
For `CCOC(=O)c1ccc(N2C(=O)c3n[nH]c(C)c3C2c2ccc(CC)cc2)cc1` (centres undefined), the survival is inactive: 78%.
With `Cc1cc(=O)n(Cc2ccccc2)c(=O)n1Cc1ccccc1` the figure was inactive: 89%.
On to `CCc1ccccc1NC(=O)Cn1nc(C)c2nn(-c3ccc(Cl)cc3)c(C)c2c1=O`, for which the survival is inactive: 99%.
As for `CCc1ccc(S(=O)(=O)c2cn(C)c3ccc(C)cc3c2=O)cc1`, the figure is inactive: 96%; as for `Cc1ccc(NC(=O)Cn2cc(S(=O)(=O)Cc3ccccc3)c3ccccc32)cc1C`, inactive: 94%; as for `COC(=O)c1cc2occc2n1Cc1nc(-c2ccc(Cl)cc2)oc1C`, inactive: 100%.
Turning to `CC1CCCCC1NC(=O)CN1CCC(NC(=O)Nc2ccccc2)CC1` (centres undefined), the survival was inactive: 89%.
As for `Cc1ccc(-n2nc(C(=O)N(C)c3ccccc3Cl)c3c4ccccc4n(C)c3c2=O)cc1`, the figure is inactive: 88%.
With `Cc1cccn2c(=O)cc(COc3cccc(NC(=O)Nc4cccc(Cl)c4)c3)nc12` the figure was inactive: 130%; with `CC(C)c1ccc(NC(=O)c2cc(S(=O)(=O)NCCc3ccccc3)ccc2F)cc1`, inactive: 63%; with `COc1ccc(-n2ccnc(NCCc3ccc(S(N)(=O)=O)cc3)c2=O)cc1Cl`, inactive: 95%.
As for `O=C1Cc2cc(S(=O)(=O)Nc3cccc(C(F)(F)F)c3)cc3c2N1CCC3`, the figure is inactive: 64%; as for `COc1ccc(C(C)C)cc1S(=O)(=O)NCCc1c(C)[nH]c2c(Cl)cccc12`, inactive: 82%.
`CN(C)S(=O)(=O)N(CC(=O)NCCSCc1ccc(Cl)cc1Cl)c1ccccc1`: the survival was active: 47%.
With `CCOC(=O)C(Cc1ccccc1)NC(=O)Cn1nnc(-c2ccc(C)cc2)n1` (centres undefined) the figure was inactive: 59%.
With `CCOC(=O)C(CC)n1c(Br)nc2c1c(=O)[nH]c(=O)n2C` (centres undefined) the figure was inactive: 101%; with `COc1ccc(NC(=O)CN2C(=O)C(c3ccccc3)=NC23CCC(C)CC3)cc1Cl` (centres undefined), inactive: 73%.
With `COc1ccc2[nH]c(=O)cc(C(=O)O)c2c1` the figure was inactive: 104%.
Consider `O=C(C(c1ccccc1)c1ccccc1)N1CCN(c2ccccn2)CC1`, for which the survival is inactive: 74%.
With `CCn1nc(C)c(CCN(C)C(=O)Nc2cc(Cl)c(OC)cc2OC)c1C` the figure was inactive: 85%; with `CCN(Cc1ccccc1)C(=O)Cn1c(=O)cc(C)c2c(C)nn(-c3cccc(F)c3)c21`, inactive: 72%; with `O=C(CSc1oc(-c2ccc(F)cc2)nc1S(=O)(=O)c1ccccc1)c1ccc(Cl)cc1`, inactive: 55%.
Regarding `CC(C)c1nn2c(=O)cc(COC(=O)c3cccc(NC(=O)CCc4ccccc4)c3)nc2s1`, the survival was inactive: 94%.
For `CCOc1ccc(-c2nnc(SCC(=O)NC3CCCCC3)nc2-c2ccc(OCC)c(OC)c2)cc1OC`, the survival was inactive: 78%.
With `CCc1ccc2occ(CC(=O)Nc3nnc(SC)s3)c2c1` the figure was inactive: 76%; with `CC(C)c1ccc(NC(=O)C2CCC(CNS(=O)(=O)c3ccc4c(c3)CCCC(=O)N4)CC2)cc1` (centres undefined), inactive: 73%; with `COc1ccc(CNC(=O)CCn2c(=O)c3cccn3c3ccc(F)cc32)cc1OC`, inactive: 91%.
With `CCN1C(=O)c2ccccc2S(=O)(=O)c2ccc(C(=O)NCc3ccc(C)cc3)cc21` the figure was inactive: 61%; with `CC(C)c1ccc(NC(=O)[C@H]2O[C@@H]3OC(C)(C)O[C@@H]3[C@H]3OC(C)(C)O[C@H]32)cc1`, inactive: 91%.
As for `COc1ccc(-c2nc3cc(N=Cc4ccccc4O)ccc3o2)cc1`, the figure is inactive: 93%.
Take `CCN(CC)c1ccc2nc3c(=O)n(C)c(=O)n(C)c3nc2c1`: the survival is inactive: 64%.
As for `Cc1nn(CC(=O)N2CCN(c3ccccc3F)CC2)c(=O)c2cccn12`, the figure is inactive: 103%; as for `CCc1cc2c(=O)c(-c3nc(C)cs3)c(CCC(=O)O)oc2cc1O`, inactive: 62%.
With `Cc1cc(OC(C)C(=O)N(Cc2ccco2)Cc2ccco2)cc(C)c1Cl` (centres undefined) the figure was active: 35%.
